# Measurements published in the supplement of paper PMC3334620.
# The full ranking holds about 33,000 sequences; the median of “E-score (-0.5 to 0.5)” is about -0.054, and the highest 2% start at about 0.35. The list shows a part of the results.
# Target: T1, Stb5 (UniProt P38699)
# T1 sequence: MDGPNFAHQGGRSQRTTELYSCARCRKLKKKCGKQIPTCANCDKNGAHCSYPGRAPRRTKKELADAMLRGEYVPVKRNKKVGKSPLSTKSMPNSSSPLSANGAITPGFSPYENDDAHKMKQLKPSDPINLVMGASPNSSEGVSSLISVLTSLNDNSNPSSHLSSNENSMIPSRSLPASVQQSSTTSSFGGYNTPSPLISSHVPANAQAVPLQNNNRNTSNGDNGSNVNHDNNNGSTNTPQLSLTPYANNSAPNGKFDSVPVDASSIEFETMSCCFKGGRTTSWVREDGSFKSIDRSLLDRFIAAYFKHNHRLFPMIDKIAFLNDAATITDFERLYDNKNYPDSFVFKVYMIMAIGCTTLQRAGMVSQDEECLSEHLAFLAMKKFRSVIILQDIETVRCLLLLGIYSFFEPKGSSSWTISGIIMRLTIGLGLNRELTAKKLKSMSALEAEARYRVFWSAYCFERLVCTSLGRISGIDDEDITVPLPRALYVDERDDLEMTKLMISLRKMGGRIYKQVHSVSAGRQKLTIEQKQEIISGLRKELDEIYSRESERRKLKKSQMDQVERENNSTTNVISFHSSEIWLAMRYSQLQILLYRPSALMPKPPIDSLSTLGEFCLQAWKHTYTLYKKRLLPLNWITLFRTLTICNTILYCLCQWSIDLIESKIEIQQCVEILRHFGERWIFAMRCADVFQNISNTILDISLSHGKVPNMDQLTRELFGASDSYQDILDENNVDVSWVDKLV
# Experiment: PBM E-score (8-mer binding enrichment) (E-score (-0.5 to 0.5)); higher = stronger / more preferred TF binding; most listed sequences are background and not binding sites
# Settings: protein concentration: 200 nM; construct: GST-full length
# Experimental: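 Universal 'all 10-mer' protein binding microarrays (Agilent AMADID 015681) probed with GST-tagged S. cerevisiae TFs (full-length or DBD) made by in vitro transcription/translation (PURExpress), about 100-200 nM. Bound TF was detected with fluorescent anti-GST. Each ungapped 8-mer (which stands for itself and its reverse complement) is scored by the PBM enrichment score (E-score), a modified Wilcoxon-Mann-Whitney statistic from -0.5 to +0.5, computed with the Universal PBM Analysis Suite. Scale: above 0.35 generally sequence-specific binding.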
row,Sequence,PBM E-score
1,GCAAATGC,0.0604
2,ATAGCTAA,-0.18
3,ATGGCTAA,-0.0533
4,AAACGCGG,0.271
5,GTTCACGA,-0.0648
6,AAGATTCT,-0.344
7,GGATGTAC,0.0579
8,CAGTTCTA,-0.128
9,CTCTACAG,-0.158
10,AATGATCA,-0.293
11,GCATTCGC,-0.0124
12,AGCCAGCA,-0.147
13,TGAGTCAA,-0.0377
14,CTACTTTA,-0.1
15,CTCGTGTC,-0.157
16,AACGGTAC,0.289
17,AATTATGC,0.0642
18,GCCTCAGC,-0.151
19,GAGCAGTA,-0.0483
20,CCGCCCGG,0.344
21,CATCTATA,0.038
22,GTTCTTAA,0.0213

row,Sequence,PBM E-score
1,CTTTCTGC,-0.15
2,CTTAATCC,0.0909
3,CATCGGTA,0.33
4,GGGGTGAA,0.183
5,GCAGTCCC,-0.173
6,ATTGGTGG,0.041
7,ACGTACAT,-0.108
8,GTCATAGA,-0.0642
9,CCGTGAAG,0.013
10,AAACGGAT,0.197
11,GCACTTAA,0.152
12,GCCGAATA,0.194
13,ACCTGACT,-0.309
14,CCGTCTAC,0.147
15,CTTTCAAA,-0.0117
16,ATTGCTCG,-0.0914
17,CCGAGGCA,0.0512
18,CACGCCTC,-0.342
19,GGCTACGA,0.0073
20,ACGCAGTC,-0.138
21,AGGACCCA,-0.133
22,AATTGGAC,0.0159

row,Sequence,PBM E-score
1,CCATGCGC,-0.00872
2,CCTAGTAA,0.115
3,AATGTACA,0.003
4,CATCATCC,-0.174
5,CAGAATCA,-0.134
6,GGTGCACC,-0.0672
7,AACTATAG,-0.0316
8,CTCGACCA,-0.211
9,GACAGTTA,-0.0979
10,AGATCACG,-0.179
11,AGAACTGC,-0.107
12,TCCGCGAA,0.252
13,AGCACAGG,-0.192
14,CGACTAAA,-0.102
15,TCACTAAA,-0.267
16,ATCACGAA,-0.109
17,AAATAAAG,-0.0493
18,ACCTCGAT,-0.167
19,AAGACAGG,-0.206
20,CTTTATGA,-0.246
21,GAGAGTCC,0.0382
22,AAAAGCGG,0.298

row,Sequence,PBM E-score
1,CCGCGAAG,0.213
2,AATTGTAG,-0.259
3,AGTGTCCA,-0.234
4,CGACGCCA,0.0897
5,CTAGTTCC,0.225
6,CTCCAAAC,-0.105
7,CACGTTTA,-0.22
8,CTCACCTA,-0.0147
9,TACTCCTA,-0.167
10,GTGAACCA,-0.099
11,GGTGTGCA,-0.211
12,AGGTCCCA,-0.357
13,CCAGGTGC,-0.153
14,AGTAGGTC,-0.0747
15,AGTAGGAA,-0.182
16,CGGGGGAA,0.257
17,ACCTAGAC,0.0305
18,CAGGTCCG,0.237
19,AGCTTAGG,-0.07
20,CCGGTCCA,0.19
